# Results from PubChem BioAssay AID1671194 (National Center for Advancing Translational Sciences (NCATS), 2021).
# Values joined by “and” are separate entries in the source; they are usually repeats but may differ in a detail not shown here. Equal values may be shown once. The whole screen tested about 140,000 compounds, of which about 240 (0.17%) were called active. The shares of active, inactive and inconclusive entries below differ from those in the screen. Calls come from the whole dose curve; as a rule, active = well fitted inhibition curve with a large enough effect; inconclusive = small, poorly fitted or top-dose-only effect; inactive = no such curve, though single readings can be large or run the other way. A potency beside an inconclusive call is a rough fit, not a confirmed value.
# Assay: Primary qHTS assay for inhibitors of alpha-synuclein gene (SNCA) expression; note: nearly all actives have a fitted effect of over 45% in size
# Settings: HEK-293 SNCA-luciferase knock-in, luminescence, 24 h; series mostly up to 57.2 µM
# Potency is the fitted concentration of half-maximal effect; tags give direction and shape of the fitted curve.
row,SMILES,Potency
1,O=C(c1ccc2c(c1)OCO2)N1CCCN(c2cc(-c3ccc(Br)cc3)[nH]n2)CC1,"inconclusive: 20 µM [inhibitor, partial curve, poor fit]"
2,Cc1cccc(-c2nc3ccc(C(=O)N4CCOCC4)cc3o2)n1,inactive
3,COc1cccc(C(=O)N2CCC(C(=O)N3CC[C@@](C)(O)[C@@H](O)C3)CC2)c1,"inconclusive: 28.2 µM [inhibitor, partial curve, poor fit]"
4,CC(=O)Nc1ccc([C@H](C)C(=O)Nc2ncc(C(C)C)s2)cc1,"inconclusive: 8.57 µM [inhibitor, full curve]"
5,CC(C)CNc1ccc2c(n1)C(C)(C(=O)Nc1ccncc1)CN(Cc1ccccc1)C2 (stereo not given),"inconclusive: 56.2 µM [inhibitor, single point]"
6,Cc1cc(=O)n(CC(=O)NCCc2ccc(Cl)cc2)c(N2CCc3ccccc3C2)n1,"inconclusive: 39.8 µM [inhibitor, single point]"
7,COc1nc(C)cnc1NS(=O)(=O)c1cccnc1-c1ccc(-c2nnco2)cc1,"inconclusive: 0.152 µM [inhibitor, full curve, poor fit]"
8,CN1c2cc(C(=O)N3CCN(c4ccccc4Cl)CC3)ccc2C(=O)N2CCCCC21 (stereo not given),inactive
9,COc1ccc(C(=O)N2CCC(n3cc(-c4nc(C)no4)nn3)C2)cc1OC (stereo not given),"inconclusive: 28.2 µM [inhibitor, single point]"
10,O=C(Cc1ccccc1F)N1CC(Oc2ccc(-c3noc(-c4cccnc4)n3)cc2)C1,"inconclusive: 17.8 µM [inhibitor, partial curve, poor fit]"
11,O=C(NCc1ccc(Cl)cc1)c1ccn2cncc2c1,"inconclusive: 12.6 µM [inhibitor, single point]"
12,CCOc1nccn2c(-c3ccc(CN4CCNC(=O)C4)cc3)cnc12,inactive
13,CCOC(=O)c1c(S(=O)(=O)N2CCCC(C(=O)N3CCN(c4ccccc4)CC3)C2)c(C)n(C)c1C (stereo not given),"inconclusive: 3.16 µM [inhibitor, single point]"
14,O=C1Nc2ccccc2CN(CC2CC2)C12CCNC2 (stereo not given),inactive
15,O=C(CCc1cccnc1)N1CC(CNc2ccccc2)C2(C1)CN(c1ccccc1)C2 (stereo not given),"inconclusive: 14.1 µM [inhibitor, partial curve]"
16,c1ccc(-c2nnc3ccc(N4CCc5ccccc5C4)nn23)nc1,"inconclusive: 56.2 µM [inhibitor, single point]"
17,CCc1noc(-c2cccn3c(CNC(=O)Cc4ccccc4OC)nnc23)n1,inactive
18,c1ccc(COCCCc2nc(C3CCOC3)n[nH]2)cc1 (stereo not given),"inconclusive: 14.1 µM [inhibitor, partial curve]"
19,Cn1ccnc1CN1CCNc2cc(Nc3ccccc3)ncc2C1,inactive
20,CC(Sc1nc(=O)cc(N)n1CCc1ccccc1)C(=O)Nc1ccccc1C#N (stereo not given),"inconclusive: 39.8 µM [inhibitor, single point]"

row,SMILES,Potency
1,CC(C)(C)NC(=O)C[C@@H]1CCNC[C@@H]1Cc1cc(-c2ccc(F)cc2)on1,"inconclusive: 25.1 µM [inhibitor, partial curve, poor fit]"
2,O=C(C[C@@H]1CCNC[C@@H]1Cc1cc(COc2ccccc2)on1)Nc1ccccc1,"inconclusive: 56.2 µM [inhibitor, single point]"
3,COc1cc(NC(=O)c2cc3c(=O)n(Cc4cccs4)ccc3nc2C)cc(OC)c1OC,inactive
4,O=c1cc(CSc2n[nH]c(-c3ccccc3)n2)[nH]c2ccccc12,"inconclusive: 35.5 µM [inhibitor, partial curve, poor fit]"
5,COc1ccc2nc([C@H]3CCN(Cc4cccc(OC(F)(F)F)c4)C3)[nH]c2c1,inactive
6,CCN1CCN(c2c(S(=O)(=O)c3ccc(C)c(C)c3)cnc3ccc(F)cc23)CC1,"inconclusive: 4.47 µM [inhibitor, full curve, poor fit]"
7,Clc1ccccc1C1(c2ccnc(CC3CC3)n2)CCNCC1,"inconclusive: 0.708 µM [inhibitor, single point]"
8,Cc1ccc(CC(=O)N2CCN(c3cc(C(F)(F)F)ncn3)CC2)cc1,"inconclusive: 39.8 µM [inhibitor, single point]"
9,COc1cccc(N2CCN(C(=O)c3cnn(-c4ccc(C)cc4C)c3C3CCN(C(=O)OC(C)(C)C)CC3)CC2)c1,"inconclusive: 20 µM [inhibitor, partial curve, poor fit]"
10,CC(=O)N1c2c(cc(Br)cc2S(=O)(=O)N2CCN(c3cccc(Cl)c3)CC2)CC1C (stereo not given),"inconclusive: 25.1 µM [inhibitor, single point]"
11,Cc1ccc(Cl)cc1NC(=O)Cn1c(=O)n(Cc2ccc(C(=O)NCc3ccc4c(c3)OCO4)cc2)c(=O)c2ccccc21,"inconclusive: 31.6 µM [inhibitor, single point]"
12,CCOC(=O)CN1CCN(C(=O)CCc2cc3cc(OC)ccc3[nH]c2=O)CC1,"inconclusive: 8.91 µM [inhibitor, single point]"
13,COc1cccc(CNC(=O)C2CCc3nnc(CNC(=O)NC(C)(C)C)n32)c1 (stereo not given),inactive
14,CCOc1ccccc1NC(=O)Cn1c(-c2ccccc2)nc(C)c(CCO)c1=O,inactive
15,CN1[C@@H](CCC(=O)NCc2cccs2)CNC(=O)[C@@H]2[C@H]1CCN2Cc1ccccc1,"inconclusive: 22.4 µM [inhibitor, partial curve, poor fit]"
16,CCCn1c(NCc2ccc(N(CC)CC)cc2)nc2ccccc21,active: 17.8 µM
17,COc1ccc(CN2C[C@@H]3C[C@@H](C(N)=O)N(C(=O)C(C)C)c4cccc(c43)C2=O)cc1,"inconclusive: 2.51 µM [inhibitor, full curve, poor fit]"
18,COc1ccc(CN2C[C@H]3CN(Cc4ccc(C)cc4)CCN3C2=O)cc1,"inconclusive: 4.47 µM [inhibitor, full curve, poor fit]"
19,O=C(NCc1ccccc1)c1nc(S(=O)(=O)Cc2ccccc2)ncc1Cl,"inconclusive: 28.2 µM [inhibitor, single point]"
20,CN1CCc2nc3sc(C(=O)Nc4ccccc4OC(F)(F)F)c(N)c3cc2C1,"inconclusive: 31.6 µM [inhibitor, single point]"

row,SMILES,Potency
1,CC1(COc2ccccc2)COc2ccc(C(=O)NCc3ccc4c(c3)OCO4)cc2N1 (stereo not given),"inconclusive: 20 µM [inhibitor, partial curve, poor fit]"
2,Cc1cnc(-c2ccncc2)n1CCC1CCN(C(=O)CCc2ccccc2)CC1,"inconclusive: 39.8 µM [inhibitor, single point]"
3,O=C(c1ccco1)N1CCC2(CCN(Cc3nccs3)CC2)CC1,"inconclusive: 12.6 µM [inhibitor, partial curve, poor fit]"
4,COc1ccc(OC)c(NC(=O)Nc2cccc(-c3ccc(N4CCCCC4)nn3)c2)c1,"inconclusive: 8.91 µM [inhibitor, partial curve, poor fit]"
5,c1ccc(-c2noc(-c3cncnc3NCc3ccco3)n2)cc1,"inconclusive: 3.55 µM [inhibitor, partial curve, poor fit]"
6,O=C(NCCc1ccccc1)C1CCN(C(=O)[C@H]2CCC[C@@H](O)C2)CC1,"inconclusive: 8.91 µM [inhibitor, partial curve, poor fit]"
7,COc1ccc(-n2c(=O)c(-c3ccc(Cl)cc3)nc3cncnc32)cc1,"inconclusive: 1.78 µM [inhibitor, partial curve, poor fit]"
8,Cc1sc2ncn(CC(=O)N3CCN(c4ccc(Cl)cc4)CC3)c(=O)c2c1S(=O)(=O)N1CCN(c2ncccn2)CC1,"inconclusive: 2.24 µM [inhibitor, partial curve, poor fit]"
9,Cc1cc2c(cc1CNC1CC(C)(C)Cc3nc(C(C)(C)C)ncc31)OCO2 (stereo not given),"inconclusive: 28.2 µM [inhibitor, partial curve, poor fit]"
10,CC1CCN(C(=O)C[C@@H]2c3nc(NC(=O)CC(C)(C)C)sc3C[C@@H]3[C@](C)(CO)[C@H](O)CC[C@]32C)CC1,"inconclusive: 35.5 µM [inhibitor, partial curve, poor fit]"
11,CCOC(=O)c1cc2c(=O)n3ccccc3nc2n(Cc2ccco2)c1=NC(=O)c1c(F)cccc1Cl,"inconclusive: 35.5 µM [inhibitor, single point]"
12,Cc1nc2ncccn2c1C(=O)N1CCn2nc(CO)cc2C1,inactive
13,COc1ccc(-c2nc(CC3CCN(C(=O)c4n[nH]c(=O)c5ccccc45)C3)no2)cc1 (stereo not given),inactive
14,O=C(O)CCn1ncc2cc(OCC3CCN(C(=O)CC4CC4)CC3)ccc21,inactive
15,COc1ccc(-c2nc3ccncc3[nH]2)cc1,"inconclusive: 2.82 µM [inhibitor, full curve, poor fit] and active: 10 µM"
16,COc1ccc(OC)c(CCNC(=O)c2cnn(-c3ccccc3Cl)c2C2CCN(C(=O)OC(C)(C)C)CC2)c1,"inconclusive: 10 µM [inhibitor, partial curve]"
17,O=C1c2c(nc(COc3ccc4c(c3)OCO4)n2Cc2ccccc2)NCCN1Cc1ccccc1,"inconclusive: 44.7 µM [inhibitor, partial curve, poor fit]"
18,Cc1nc(C2(C)CCN(C(=O)CCCC(=O)n3nc(C)c4ccccc43)CC2)no1,"inconclusive: 39.8 µM [inhibitor, single point]"
19,Cc1cccc(C(=O)Nc2c(C(=O)NCc3ccc(Cl)cc3)sc3nc(C)cc(C)c23)c1,"inconclusive: 39.8 µM [inhibitor, single point]"
20,Cc1ccccc1C(=O)Nc1c(C)nc(Nc2ccccc2)nc1Nc1ccccc1,"inconclusive: 39.8 µM [inhibitor, single point]"
